#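 48-hour exposure; five concentrations; linearly interpolated endpoints. The concentration for 50% growth inhibition is given as GI50.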 Not every entry of the source has a single result; some have several. They are shown here; other results are not. There may be further records. For some assays here: A record mostly stands for its own series of concentrations, not given here; a value can be the end of its range.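 Definition used: TGI = concentration required for complete inhibition of growth.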 For some assays here: Results that share an entry are repeats across runs, samples, wells, individuals or studies. A tag in brackets gives the origin of a value. The letters are not those of the source and start again with each entry. Where a SMILES comes first, the peptide text is derived from it. [ ]: non-standard residue; d: D form. The star is where a group is joined. ξ: configuration not given here. X3 = COC1=CC(=O)N(C(=O)C(O*)C(C)C)C1Cc1ccccc1; ξNMe2Val = CC(C)C(C(=O)*)N(C)C; NMeV = CN[CH](C(=O)O)C(C)C
# What was measured:
# Test in all cases: NCI tumour cell line growth inhibition, 48 h
# CCRF-CEM leukemia = tested on: CCRF-CEM leukemia
# HCC-2998 colon = tested on: HCC-2998 colon
# HOP-92 NSCLC = tested on: HOP-92 NSCLC
# KM20L2 colon = tested on: KM20L2 colon
# MOLT-4 leukemia = tested on: MOLT-4 leukemia
# OVCAR-8 ovarian = tested on: OVCAR-8 ovarian
# RXF 393 renal = tested on: RXF 393 renal
# SK-MEL-2 melanoma = tested on: SK-MEL-2 melanoma
# SK-MEL-5 melanoma = tested on: SK-MEL-5 melanoma
# SK-OV-3 ovarian = tested on: SK-OV-3 ovarian
# SN12C renal = tested on: SN12C renal
# SNB-75 CNS = tested on: SNB-75 CNS
# XF 498 CNS = tested on: XF 498 CNS
# A498 renal = tested on: A498 renal
# A549 NSCLC = tested on: A549 NSCLC
# CAKI-1 renal = tested on: CAKI-1 renal
# COLO 205 colon = tested on: COLO 205 colon
# DLD-1 colon = tested on: DLD-1 colon
# DMS 273 small cell lung = tested on: DMS 273 small cell lung
# EKVX NSCLC = tested on: EKVX NSCLC
# HCT-116 colon = tested on: HCT-116 colon
# HCT-15 colon = tested on: HCT-15 colon
# HL-60(TB) leukemia = tested on: HL-60(TB) leukemia
# HOP-18 NSCLC = tested on: HOP-18 NSCLC
# HOP-62 NSCLC = tested on: HOP-62 NSCLC
# HS 578T breast = tested on: HS 578T breast
# HT29 colon = tested on: HT29 colon
# IGROV1 ovarian = tested on: IGROV1 ovarian
# K-562 leukemia = tested on: K-562 leukemia
# KM12 colon = tested on: KM12 colon
# LOX IMVI melanoma = tested on: LOX IMVI melanoma
# MALME-3M melanoma = tested on: MALME-3M melanoma
# MCF7 breast = tested on: MCF7 breast
# MDA-N = tested on: MDA-N
# NCI-H226 lung = tested on: NCI-H226 lung
# NCI-H23 lung = tested on: NCI-H23 lung
# NCI-H460 lung = tested on: NCI-H460 lung
# NCI-H522 lung = tested on: NCI-H522 lung
# OVCAR-3 ovarian = tested on: OVCAR-3 ovarian
# OVCAR-4 ovarian = tested on: OVCAR-4 ovarian
# OVCAR-5 ovarian = tested on: OVCAR-5 ovarian
# P388/ADR leukemia = tested on: P388/ADR leukemia
# RPMI-8226 leukemia = tested on: RPMI-8226 leukemia
# SF-268 CNS = tested on: SF-268 CNS
# SF-539 CNS = tested on: SF-539 CNS
# SK-MEL-28 melanoma = tested on: SK-MEL-28 melanoma
# SN12K1 renal = tested on: SN12K1 renal
# SNB-19 CNS = tested on: SNB-19 CNS
# SNB-78 CNS = tested on: SNB-78 CNS
# SR leukemia = tested on: SR leukemia
# SW-620 colon = tested on: SW-620 colon
# T-47D breast = tested on: T-47D breast
# U251 CNS = tested on: U251 CNS
# UACC-257 melanoma = tested on: UACC-257 melanoma
# UACC-62 melanoma = tested on: UACC-62 melanoma
# UO-31 renal = tested on: UO-31 renal
smiles,measurement,setting,value
Cn1cc(-c2cc3c(Nc4ccc(CC(=O)Nc5cc(C(C)(C)C)on5)cc4)ncnc3[nH]2)cn1,TGI,CCRF-CEM leukemia,"14.1 µM [sample A, mean of 2 tests] and 1.12 µM [sample B, mean of 2 tests]"
COC1=CC(=O)N(C(=O)C(OC(=O)C2CCCN2C(=O)C2CCCN2C(=O)C(C(C)C)N(C)C(=O)C(NC(=O)C(C(C)C)N(C)C)C(C)C)C(C)C)C1Cc1ccccc1 (configuration not stated) (ξNMe2Val-V[NMeV]PP-X3; configuration not given here),TGI,HCC-2998 colon,5.11 nM and 208 nM
same,TGI,HOP-92 NSCLC,6.8 nM and > 4 µM
same,TGI,KM20L2 colon,7.45 nM and < 0.4 nM
same,TGI,MOLT-4 leukemia,8.35 nM and 461 nM
same,TGI,OVCAR-8 ovarian,9.27 nM and 229 nM
same,TGI,RXF 393 renal,6.57 nM and > 4 µM
same,TGI,SK-MEL-2 melanoma,9.74 nM and > 4 µM
same,TGI,SK-MEL-5 melanoma,7.09 nM and 497 nM
same,TGI,SK-OV-3 ovarian,9.01 nM and 1.76 µM
same,TGI,SN12C renal,9.41 nM and > 4 µM
same,TGI,SNB-75 CNS,8.6 nM and > 4 µM
same,TGI,XF 498 CNS,7.85 nM and < 0.4 nM
CC[C@@H](C)[C@@H]1NC(=O)C(NC(=O)C(CC(C)C)N(C)C(=O)C2CCCN2C(=O)C(C)O)C(C)OC(=O)C(Cc2ccc(OC)cc2)N(C)C(=O)C2CCCN2C(=O)C(CC(C)C)NC(=O)C(C)C(=O)C(C(C)C)OC(=O)C[C@H]1O (some centres not stated),TGI,A498 renal,"5.45 nM, 17.9 nM, 97.3 nM"
same,TGI,A549 NSCLC,"0.5, 11.4, 25.6, 187 nM"
same,TGI,CAKI-1 renal,"0.5, 74.8, 36.1, 47.9 nM"
same,TGI,CCRF-CEM leukemia,"0.0542 nM, < 26.1 nM, 89.2 nM"
same,TGI,COLO 205 colon,"0.000525 nM, 3.04 nM [1 test] and 12.2 nM [mean of 10 tests] and 0.568 nM [mean of 3 tests] and 214 nM [mean of 5 tests]"
same,TGI,DLD-1 colon,"0.5, 0.562, 59.7, 315 nM"
same,TGI,DMS 273 small cell lung,0.5 nM [1 test] and 39.3 nM [mean of 5 tests]
same,TGI,EKVX NSCLC,"0.5, 0.256, 8.27, 16.4, 46.6 nM"
same,TGI,HCT-116 colon,"0.5 nM, 0.0115 nM, 3.28 nM [1 test] and 23 nM [mean of 4 tests] and 36.2 nM [mean of 9 tests]"
same,TGI,HCT-15 colon,"0.5 nM, 51.1 nM, 302 nM, 1.24 µM"
same,TGI,HL-60(TB) leukemia,"0.0776, 2.25, 24.3, 257 nM"
same,TGI,HOP-18 NSCLC,0.874 nM [mean of 4 tests] and 60.3 nM [mean of 5 tests] and 10.9 nM [mean of 9 tests]
same,TGI,HOP-62 NSCLC,"1.59, 4.61, 34.2, 15.6 nM"
same,TGI,HOP-92 NSCLC,"0.5, 7.45, 21.5, 5.77, 40.2 nM"
same,GI50,HS 578T breast,0.423 nM [1 test] and 12.7 nM [mean of 4 tests]
same,TGI,HS 578T breast,3.41 nM [1 test] and 35.9 nM [mean of 4 tests]
same,TGI,HT29 colon,"0.5 nM, 17.9 nM, 36.6 nM"
same,TGI,IGROV1 ovarian,"4.05, 9.82, 54.8, 210 nM"
same,TGI,K-562 leukemia,"0.356, 16.8, 30.5, 674 nM"
same,TGI,KM12 colon,"0.5, 0.826, 5.24, 30.8, 45.1 nM"
same,TGI,KM20L2 colon,"0.5 nM, 24.7 nM, 203 nM"
same,TGI,LOX IMVI melanoma,"0.5, 5.46, 21.7, 113 nM"
same,TGI,MALME-3M melanoma,"0.5, 5.69, 5.39, 9.95, 42 nM"
same,TGI,MCF7 breast,"0.5 nM, 0.101 nM, 22 nM"
same,TGI,MDA-N,6.68 nM and 87.6 nM
same,TGI,NCI-H226 lung,"6.51 nM, 13.2 nM, 78 nM"
same,TGI,NCI-H23 lung,"0.5, 11.8, 50.5, 32.2 nM"
same,TGI,NCI-H460 lung,"0.5, 0.0105, 61.2, 14.4, 161 nM"
same,TGI,NCI-H522 lung,"0.5 nM, 0.153 nM, 7.51 nM [1 test] and 12.4 nM [mean of 11 tests] and 0.483 nM, < 12.6 nM [mean of 5 tests]"
same,TGI,OVCAR-3 ovarian,"0.5, 1.16, 83.4, 40.9, 16.9 nM"
same,TGI,OVCAR-4 ovarian,"0.5, 0.722, 15.3, 37.1 nM"
same,TGI,OVCAR-5 ovarian,"1.67 nM, 17 nM [1 test] and 414 nM [mean of 5 tests] and 140 nM [mean of 8 tests]"
same,TGI,OVCAR-8 ovarian,"22.2 nM, 16 nM, 721 nM"
same,TGI,P388/ADR leukemia,"0.5 nM, 702 nM, 1.61 µM"
same,TGI,RPMI-8226 leukemia,"0.0169, 34.3, 70.7, 296 nM"
same,TGI,SF-268 CNS,"5.96, 16.8, 40, 51.9 nM"
same,TGI,SF-539 CNS,"0.206, 5.69, 10.1, 25.4 nM"
same,TGI,SK-MEL-2 melanoma,"0.5, 0.381, 5.82, 14.3, 34.2 nM"
same,TGI,SK-MEL-28 melanoma,6.73 nM [1 test] and 13.3 nM [mean of 11 tests] and 0.308 nM [mean of 4 tests] and 30.1 nM [mean of 5 tests]
same,TGI,SK-MEL-5 melanoma,"0.5, 0.187, 0.584, 21.3, 11.6 nM"
same,TGI,SK-OV-3 ovarian,10.3 nM [1 test] and 28.9 nM [mean of 11 tests] and 213 nM [mean of 5 tests]
same,TGI,SN12C renal,"12.1 nM, 18.8 nM, 415 nM"
same,TGI,SN12K1 renal,"0.5 nM, 5.18 nM, 176 nM"
same,TGI,SNB-19 CNS,"0.5, 0.102, 9.84, 13.3, 25.3 nM"
same,TGI,SNB-75 CNS,"0.001 nM, 0.0662 nM [1 test] and 0.0794 nM [mean of 2 tests] and 0.687 nM [mean of 4 tests] and 18.7 nM [mean of 5 tests]"
same,TGI,SNB-78 CNS,"0.912 nM, 7.08 nM, 22.1 nM"
same,TGI,SR leukemia,"2.11 nM, 7.18 nM, 38.7 µM"
same,TGI,SW-620 colon,"0.5, 6.65, 271, 67.3 nM"
same,TGI,T-47D breast,8.27 nM and 453 nM
same,TGI,U251 CNS,"0.5 nM, 0.0128 nM, 4.04 nM [1 test] and 15.8 nM [mean of 11 tests] and 16 nM [mean of 5 tests]"
same,TGI,UACC-257 melanoma,"0.5, 14.1, 21.9, 103 nM"
same,TGI,UACC-62 melanoma,"0.5 nM, 0.252 nM, 5.55 nM, 9.7 nM, < 11.9 nM"
same,TGI,UO-31 renal,"24.1 nM, 172 nM, 888 nM"
same,TGI,XF 498 CNS,"0.00974 nM, 6.56 nM, < 20.9 nM"
C=C1CC2CC[C@@]34C[C@@H]5O[C@@H]6C(O[C@H]7CC[C@H](CC(=O)OC8[C@@H](C)C9OC%10C[C@]%11(C[C@@H]%12O[C@@]%13(C[C@@H](C)[C@@H]%12O%11)C[C@H](C)[C@@H]%11OC%12CC(C(O)CO)OC%12C[C@@H]%11O%13)OC%10CC9O[C@H]8C[C@H]8O[C@@H](CC[C@@H]1O2)C[C@@H](C)C8=C)O[C@@H]7[C@@H]6O3)C5O4 (some centres not stated),TGI,CCRF-CEM leukemia,7.91 nM and > 1.48 µM
same,TGI,COLO 205 colon,5 nM and < 0.148 nM
same,TGI,HCT-15 colon,2.95 nM and > 1.48 µM
same,TGI,HL-60(TB) leukemia,1.43 nM and > 1.48 µM
same,TGI,HOP-62 NSCLC,5.37 nM and > 1.48 µM
same,TGI,KM12 colon,9.57 nM and 330 nM
same,TGI,KM20L2 colon,1.77 nM and < 0.148 nM
same,TGI,NCI-H226 lung,6.06 nM and 0.447 nM
same,TGI,SK-OV-3 ovarian,7.92 nM and > 1.48 µM
same,TGI,XF 498 CNS,4.98 nM and < 0.148 nM

# — PubChem BioAssay (NCI)
